Screen size: about 94,000 compounds; about 4,000 (4.3%) were called active. The shares of active, inactive and inconclusive entries below differ from those in the screen. Calls come from the whole dose curve; as a rule, active = well fitted inhibition curve with a large enough effect; inconclusive = small, poorly fitted or top-dose-only effect; inactive = no such curve, though single readings can be large or run the other way. Potencies of inconclusive entries are doubtful fits and often do not repeat.
Experiment: Cytotoxic Profiling in NIH 3T3 Cell Line of Diverse Libraries Using Quantitative High-Throughput Screening; note: nearly all actives have a fitted effect of over 55% in size
Details: NIH 3T3 viability, CellTiter-Glo ATP luminescence, 48-72 h; series mostly up to 96.7 µM
Method in brief: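 Cytotoxicity is measured as loss of cellular ATP: NIH 3T3 cells (400/well) are exposed to compound for 48 or 72 hr at 37 °C, then CellTiter-Glo luminescence is imaged after 10 min at room temperature.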
Potency is the fitted concentration of half-maximal effect; tags give direction and shape of the fitted curve.

Row | Compound | Potency
1 | O=C1NCc2ccccc2CC12CCCCN2Cc1ccsc1 (stereo unspecified) | inactive
2 | COc1ccc2c(c1)OCC(CNC(=O)c1ccc(C(C)C)n(C)c1=O)C2 (stereo unspecified) | inconclusive: 79.4 µM [inhibitor, partial curve, poor fit]
3 | Cc1ccc(C(=O)N[C@H]2CO[C@H]3[C@@H]2OC[C@@H]3Nc2nccc(-c3ccc(-c4ccccc4)cc3)n2)cc1 | inactive
4 | CN(Cc1cnn(C)c1)C(=O)c1csc2nc(-c3cccc(C(F)(F)F)c3)cn12 | inconclusive: 35.5 µM [inhibitor, full curve]
5 | CN(Cc1cccnc1)C1CN(C(=O)c2cccn2C)C1 | inactive
6 | COc1cc(CNc2nc(-c3c(C)noc3C)cc3cc(CN(C)C)oc23)cc(OC)c1 | inconclusive: 56.2 µM [inhibitor, partial curve, poor fit]
7 | CC1=NOC(C)(C(=O)N2CCCn3cncc3C2)C1 (stereo unspecified) | inactive
8 | COc1ccc(Cl)cc1C(=O)NC1CCN(c2cc(-c3cccs3)[nH]n2)CC1 | active: 7.94 µM
9 | Fc1ccc(-c2nnc3ccc(NCc4cnccn4)nn23)nc1 | inconclusive: 89.1 µM [inhibitor, partial curve]
10 | COc1ccc(CC(=O)N2CCCC(c3ccc(C(=O)O)cc3)C2)c(OC)c1 (stereo unspecified) | inconclusive: 50.1 µM [inhibitor, partial curve, poor fit]
11 | CN1CCC(C(=O)N[C@@H]2CN(c3ncccn3)C[C@H]2CO)CC1 | inactive
12 | Cc1nc(-c2ccccc2)n(CC(=O)Nc2cc(C(F)(F)F)ccc2Cl)c(=O)c1CCO | inconclusive: 35.5 µM [inhibitor, partial curve]
13 | CCCc1noc(-c2cn(C3CCN(C(=O)c4ccc(OC)nc4OC)CC3)nn2)n1 | inactive
14 | CN1Cc2ccccc2NCCC1=O | inconclusive: 79.4 µM [inhibitor, partial curve, poor fit]
15 | O=C1c2cnc(-c3ccc(CO)cc3)nc2OCCN1Cc1ccc(F)cc1F | inconclusive: 89.1 µM [inhibitor, partial curve]
16 | CN1[C@@H](CCC(=O)N2CCOCC2)CNC(=O)[C@@H]2[C@H]1CCN2Cc1cccc(OC(F)(F)F)c1 | inconclusive: 56.2 µM [inhibitor, partial curve, poor fit]
17 | COc1ccc(-c2[nH]nc3ncc(-c4cccnc4)nc23)c(C)c1 | active: 28.2 µM
18 | Cc1cc2c(N[C@@H]3CCOC[C@H]3OCc3c(C)noc3C)ncnc2s1 | inconclusive: 50.1 µM [inhibitor, partial curve, poor fit]
19 | COc1ccccc1CN1CC[C@@H](CO)N(C)c2nc(C)ccc2C1 | inconclusive: 100 µM [inhibitor, partial curve, poor fit]
20 | COCc1cc(=O)n(CC(=O)Nc2cc(C)ccc2OC)c(N2CCOCC2)n1 | inconclusive: 56.2 µM [inhibitor, partial curve, poor fit]
21 | Cc1nn(-c2ccccc2)c2c1C(C)N(C1CCCN(C(=O)C3CCCC3)C1)C2=O (stereo unspecified) | inconclusive: 44.7 µM [inhibitor, partial curve, poor fit]

Row | Compound | Potency
22 | COc1ccc(C2(C(=O)N3CCCN(c4cc(-c5ccc(C)c(C)c5)[nH]n4)CC3)CC2)cc1 | active: 31.6 µM
23 | CC(C)c1noc([C@@H]2C[C@H]3C(=O)NCCCCCCN(C(=O)c4cccc(C#N)c4)[C@H]3C2)n1 | inconclusive: 50.1 µM [inhibitor, partial curve, poor fit]
24 | CN1CCc2c([nH]c3ccccc23)C12CCN(C(=O)c1ccsc1)CC2 | inconclusive: 50.1 µM [inhibitor, partial curve, poor fit]
25 | Cc1noc(C)c1[S+](=O)([O-])N1CCC(c2nn(C)c(=O)[nH]2)CC1 | inactive
26 | CNC(=O)c1cc(C)nc2onc(C3CCN(C(=O)C4CCCC4)C3)c12 (stereo unspecified) | inactive
27 | O=C(C1CCCN1C(=O)c1ccc(F)cc1)N1CCC(N2Cc3cccn3C2=O)CC1 (stereo unspecified) | inactive
28 | CN1CCN(C(=O)C2CCCN(Cc3cccc(-c4cccs4)c3)C2)CC1 (stereo unspecified) | inconclusive: 50.1 µM [inhibitor, partial curve, poor fit]
29 | COc1ccc(Cn2c3c(c(=O)n2Cc2ccccc2)CCN(C(C)=O)C3)cc1 | inconclusive: 50.1 µM [inhibitor, partial curve, poor fit]
30 | Cc1nc(C(C)C)cc(N2CCN(c3ccccc3O)CC2)n1 | inconclusive: 56.2 µM [inhibitor, partial curve, poor fit]
31 | CC(C)(C)OC(=O)N1CC(Nc2ccc(Cl)cc2)C1 | inactive
32 | CCCNC(=O)c1cc(-c2ccc(F)cc2)cn1C | inactive
33 | COc1ccc(-c2noc(CC3CCN(C(=O)C4CCN(C(=O)c5ccccc5)CC4)CC3)n2)cc1 | inconclusive: 25.1 µM [inhibitor, partial curve, poor fit]
34 | COC(=O)c1cccc(NC(=O)C2CCc3sc(C(=O)N(C)C)cc3C2)c1 (stereo unspecified) | inconclusive: 44.7 µM [inhibitor, partial curve, poor fit]
35 | O=C(c1ccc2c(c1)OCCO2)N1CCc2[nH]nc(-c3ccccc3F)c2C1 | inconclusive: 50.1 µM [inhibitor, partial curve, poor fit]
36 | COCCCNc1ccc(C(=O)N2CCC(CN3CCCC3=O)CC2)cn1 | inactive
37 | COC1CCN(C(=O)Cc2c[nH]c3ncc(-c4cccnc4)cc23)CC1 | active: 79.4 µM
38 | Cn1ncc2c(C(=O)NCc3ccc(F)cc3)cc(-c3ccccc3C(F)(F)F)nc21 | inconclusive: 14.1 µM [inhibitor, full curve]
39 | CC(C)c1ccc(CC(=O)N2CCCc3ncc(C(=O)NCCc4c[nH]c5ccccc45)cc32)cc1 | active: 11.2 µM
40 | COc1cccc(CNC(=O)C2CCCN(Cc3cccc(-c4ccccc4OC)c3)C2)c1 (stereo unspecified) | inconclusive: 56.2 µM [inhibitor, partial curve, poor fit]
41 | Cc1[nH]c2c(c1C(=O)N1CCCC(CCc3ccc(F)cc3)C1)C(=O)CCC2 (stereo unspecified) | inconclusive: 44.7 µM [inhibitor, partial curve, poor fit]
